# Some of the results follow.
# B1: PFL (Pseudomonas fluorescens) (protein)
# chain: MSKYAVANQWGGSSAPWHPGGTWVLGARDNQNVVAIEIKSGDGGKSFTGTMTYAGEGPIGFKAQRTGQNQYNVENQWGGNDAPWHPGGKWVIGGRDNQNVIALSVTSSDGGKNLSGTNTYANEGPIGFRGQIE
# Experiments:
# Assay in all cases: glycan array binding signal (z-score within array); higher = stronger binding
# Details in all cases: glycan notation: IUPAC condensed, linker removed
# [1] = molecular target: Fuc(a1-2)Gal(b1-4)GlcNAc(b1-3)Gal(b1-4)GlcNAc(b1-2)Man(a1-3)[Fuc(a1-2)Gal(b1-4)GlcNAc(b1-3)Gal(b1-4)GlcNAc(b1-2)Man(a1-6)]Man(b1-4)GlcNAc(b1-4)GlcNAc
# Outline: (§1)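 The Consortium for Functional Glycomics database supplied 3228 glycan arrays, of which those lacking an available protein sequence were dropped. The binding signal, a within-array Z-score, was averaged across arrays of the same protein sequence and across linkers. Negative scores can be read as non-binding.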
# [2] = molecular target: Fuc(a1-2)Gal(b1-4)GlcNAc(b1-3)Gal(b1-4)GlcNAc(b1-3)Gal(b1-4)GlcNAc
# Outline: as §1
# [3] = molecular target: Fuc(a1-2)Gal(b1-4)GlcNAc(b1-3)GalNAc
# Outline: as §1
# [4] = molecular target: Fuc(a1-2)Gal(b1-4)GlcNAc(b1-3)[Fuc(a1-2)Gal(b1-4)GlcNAc(b1-6)]GalNAc
# Outline: as §1
# [5] = molecular target: Fuc(a1-2)Gal(b1-4)GlcNAc(b1-3)[Fuc(a1-3)[Gal(b1-4)]GlcNAc(b1-6)]Gal(b1-4)Glc
# Outline: as §1
# [6] = molecular target: Fuc(a1-2)Gal(b1-4)GlcNAc(b1-6)GalNAc
# Outline: as §1
# [7] = molecular target: Fuc(a1-2)Gal(b1-4)GlcNAc6S
# Outline: as §1
# [8] = molecular target: Fuc(a1-2)Gal(b1-4)[Fuc(a1-3)]GlcNAc
# Outline: as §1
# [9] = molecular target: Fuc(a1-2)Gal(b1-4)[Fuc(a1-3)]GlcNAc(b1-2)Man(a1-3)[Fuc(a1-2)Gal(b1-4)[Fuc(a1-3)]GlcNAc(b1-2)Man(a1-6)]Man(b1-4)GlcNAc(b1-4)[Fuc(a1-6)]GlcNAc
# Outline: as §1
# [10] = molecular target: Fuc(a1-2)Gal(b1-4)[Fuc(a1-3)]GlcNAc(b1-2)[Fuc(a1-2)Gal(b1-4)[Fuc(a1-3)]GlcNAc(b1-4)]Man(a1-3)[Fuc(a1-2)Gal(b1-4)[Fuc(a1-3)]GlcNAc(b1-2)Man(a1-6)]Man(b1-4)GlcNAc(b1-4)GlcNAc
# Outline: as §1
# [11] = molecular target: Fuc(a1-2)Gal(b1-4)[Fuc(a1-3)]GlcNAc(b1-3)Gal(b1-4)[Fuc(a1-3)]GlcNAc
# Outline: as §1
# [12] = molecular target: Fuc(a1-2)Gal(b1-4)[Fuc(a1-3)]GlcNAc(b1-3)Gal(b1-4)[Fuc(a1-3)]GlcNAc(b1-3)Gal(b1-4)[Fuc(a1-3)]GlcNAc
# Outline: as §1
# [13] = molecular target: Fuc(a1-2)Gal(b1-4)[Fuc(a1-3)]GlcNAc(b1-3)GalNAc
# Outline: as §1
# [14] = molecular target: Fuc(a1-2)Gal(b1-4)[Fuc(a1-3)]GlcNAc(b1-3)[Neu5Ac(a2-6)Gal(b1-4)GlcNAc(b1-6)]Gal(b1-4)Glc
# Outline: as §1
# [15] = molecular target: Fuc(a1-2)Gal3S(b1-4)GlcNAc
# Outline: as §1
# [16] = molecular target: Fuc(a1-2)Gal6S(b1-3)GlcNAc
# Outline: as §1
# [17] = molecular target: Fuc(a1-2)Gal6S(b1-3)GlcNAc6S
# Outline: as §1
# [18] = molecular target: Fuc(a1-2)Gal6S(b1-4)Glc
# Outline: as §1
# [19] = molecular target: Fuc(a1-2)Gal6S(b1-4)Glc6S
# Outline: as §1
# [20] = molecular target: Fuc(a1-2)[Gal(a1-3)]Gal
# Outline: as §1
# [21] = molecular target: Fuc(a1-2)[Gal(a1-3)]Gal(b1-3)GalNAc
# Outline: as §1
# [22] = molecular target: Fuc(a1-2)[Gal(a1-3)]Gal(b1-3)GalNAc(b1-3)Gal(a1-4)Gal(b1-4)Glc
# Outline: as §1
# [23] = molecular target: Fuc(a1-2)[Gal(a1-3)]Gal(b1-3)GlcNAc
# Outline: as §1
# [24] = molecular target: Fuc(a1-2)[Gal(a1-3)]Gal(b1-3)GlcNAc(b1-2)Man(a1-3)[Fuc(a1-2)[Gal(a1-3)]Gal(b1-3)GlcNAc(b1-2)Man(a1-6)]Man(b1-4)GlcNAc(b1-4)GlcNAc
# Outline: as §1
# [25] = molecular target: Fuc(a1-2)[Gal(a1-3)]Gal(b1-3)GlcNAc(b1-2)Man(a1-3)[Fuc(a1-2)[Gal(a1-3)]Gal(b1-3)GlcNAc(b1-2)Man(a1-6)]Man(b1-4)GlcNAc(b1-4)[Fuc(a1-6)]GlcNAc
# Outline: as §1
# [26] = molecular target: Fuc(a1-2)[Gal(a1-3)]Gal(b1-3)GlcNAc(b1-3)GalNAc
# Outline: as §1
# [27] = molecular target: Fuc(a1-2)[Gal(a1-3)]Gal(b1-3)GlcNAc(b1-6)GalNAc
# Outline: as §1
# [28] = molecular target: Fuc(a1-2)[Gal(a1-3)]Gal(b1-4)Glc
# Outline: as §1
# [29] = molecular target: Fuc(a1-2)[Gal(a1-3)]Gal(b1-4)GlcNAc
# Outline: as §1
# [30] = molecular target: Fuc(a1-2)[Gal(a1-3)]Gal(b1-4)GlcNAc(b1-2)Man
# Outline: as §1
# [31] = molecular target: Fuc(a1-2)[Gal(a1-3)]Gal(b1-4)GlcNAc(b1-2)Man(a1-3)[Fuc(a1-2)[Gal(a1-3)]Gal(b1-4)GlcNAc(b1-2)Man(a1-6)]Man(b1-4)GlcNAc(b1-4)GlcNAc
# Outline: as §1
# [32] = molecular target: Fuc(a1-2)[Gal(a1-3)]Gal(b1-4)GlcNAc(b1-2)Man(a1-3)[Fuc(a1-2)[Gal(a1-3)]Gal(b1-4)GlcNAc(b1-2)Man(a1-6)]Man(b1-4)GlcNAc(b1-4)[Fuc(a1-6)]GlcNAc
# Outline: as §1
# [33] = molecular target: Fuc(a1-2)[Gal(a1-3)]Gal(b1-4)GlcNAc(b1-3)GalNAc
# Outline: as §1
# [34] = molecular target: Fuc(a1-2)[Gal(a1-3)]Gal(b1-4)GlcNAc(b1-3)[Fuc(a1-2)[Gal(a1-3)]Gal(b1-4)GlcNAc(b1-6)]GalNAc
# Outline: as §1
# [35] = molecular target: Fuc(a1-2)[Gal(a1-3)]Gal(b1-4)GlcNAc(b1-6)GalNAc
# Outline: as §1
# [36] = molecular target: Fuc(a1-2)[Gal(a1-3)]Gal(b1-4)[Fuc(a1-3)]Glc
# Outline: as §1
# [37] = molecular target: Fuc(a1-2)[Gal(a1-3)]Gal(b1-4)[Fuc(a1-3)]GlcNAc
# Outline: as §1
# [38] = molecular target: Fuc(a1-2)[Gal(a1-3)]Gal(b1-4)[Fuc(a1-3)]GlcNAc(b1-3)GalNAc
# Outline: as §1
# [39] = molecular target: Fuc(a1-2)[Gal(a1-4)]Gal(b1-4)GlcNAc
# Outline: as §1
# [40] = molecular target: Fuc(a1-2)[GalNAc(a1-3)]Gal
# Outline: as §1
# [41] = molecular target: Fuc(a1-2)[GalNAc(a1-3)]Gal(b1-3)GalNAc(a1-3)[Fuc(a1-2)]Gal(b1-4)GlcNAc
# Outline: as §1
# [42] = molecular target: Fuc(a1-2)[GalNAc(a1-3)]Gal(b1-3)GalNAc(b1-3)Gal(a1-4)Gal(b1-4)Glc
# Outline: as §1
# [43] = molecular target: Fuc(a1-2)[GalNAc(a1-3)]Gal(b1-3)GlcNAc
# Outline: as §1
# [44] = molecular target: Fuc(a1-2)[GalNAc(a1-3)]Gal(b1-3)GlcNAc(b1-2)Man(a1-3)[Fuc(a1-2)[GalNAc(a1-3)]Gal(b1-3)GlcNAc(b1-2)Man(a1-6)]Man(b1-4)GlcNAc(b1-4)GlcNAc
# Outline: as §1
# [45] = molecular target: Fuc(a1-2)[GalNAc(a1-3)]Gal(b1-3)GlcNAc(b1-2)Man(a1-3)[Fuc(a1-2)[GalNAc(a1-3)]Gal(b1-3)GlcNAc(b1-2)Man(a1-6)]Man(b1-4)GlcNAc(b1-4)[Fuc(a1-6)]GlcNAc
# Outline: as §1
binder,measurement,setting,value
B1,glycan array binding signal (z-score),[1],-0.049
same,glycan array binding signal (z-score),[2],-0.094
same,glycan array binding signal (z-score),[3],-0.108
same,glycan array binding signal (z-score),[4],-0.104
same,glycan array binding signal (z-score),[5],-0.058
same,glycan array binding signal (z-score),[6],-0.066
same,glycan array binding signal (z-score),[7],-0.115
same,glycan array binding signal (z-score),[8],-0.116
same,glycan array binding signal (z-score),[9],-0.05
same,glycan array binding signal (z-score),[10],-0.013
same,glycan array binding signal (z-score),[11],-0.118
same,glycan array binding signal (z-score),[12],-0.106
same,glycan array binding signal (z-score),[13],-0.102
same,glycan array binding signal (z-score),[14],-0.107
same,glycan array binding signal (z-score),[15],-0.118
same,glycan array binding signal (z-score),[16],-0.109
same,glycan array binding signal (z-score),[17],-0.103
same,glycan array binding signal (z-score),[18],-0.115
same,glycan array binding signal (z-score),[19],-0.092
same,glycan array binding signal (z-score),[20],-0.113
same,glycan array binding signal (z-score),[21],-0.11
same,glycan array binding signal (z-score),[22],-0.105
same,glycan array binding signal (z-score),[23],-0.114
same,glycan array binding signal (z-score),[24],0.083
same,glycan array binding signal (z-score),[25],0.415
same,glycan array binding signal (z-score),[26],-0.113
same,glycan array binding signal (z-score),[27],-0.105
same,glycan array binding signal (z-score),[28],-0.111
same,glycan array binding signal (z-score),[29],-0.104
same,glycan array binding signal (z-score),[30],-0.115
same,glycan array binding signal (z-score),[31],-0.073
same,glycan array binding signal (z-score),[32],0.21
same,glycan array binding signal (z-score),[33],-0.108
same,glycan array binding signal (z-score),[34],-0.103
same,glycan array binding signal (z-score),[35],-0.115
same,glycan array binding signal (z-score),[36],-0.113
same,glycan array binding signal (z-score),[37],-0.117
same,glycan array binding signal (z-score),[38],-0.111
same,glycan array binding signal (z-score),[39],-0.117
same,glycan array binding signal (z-score),[40],-0.114
same,glycan array binding signal (z-score),[41],-0.111
same,glycan array binding signal (z-score),[42],-0.113
same,glycan array binding signal (z-score),[43],-0.119
same,glycan array binding signal (z-score),[44],-0.046
same,glycan array binding signal (z-score),[45],0.249

# Source: the supplement of paper PMC8728848
